Patent publication US20250136696A1 (HARBOUR BIOMED SHANGHAI, published 2025)

What was measured:
Assay in all cases: ELISA on coated B7 family protein
[1] = target: T1, CD275/ICOS ligand protein, human, recombinant (Fc tag) (Sino Biological, 11559-H02H) (human, UniProt O75144 19-258)
T1 construct: Bought; also called B7H2
T1 sequence (looked up): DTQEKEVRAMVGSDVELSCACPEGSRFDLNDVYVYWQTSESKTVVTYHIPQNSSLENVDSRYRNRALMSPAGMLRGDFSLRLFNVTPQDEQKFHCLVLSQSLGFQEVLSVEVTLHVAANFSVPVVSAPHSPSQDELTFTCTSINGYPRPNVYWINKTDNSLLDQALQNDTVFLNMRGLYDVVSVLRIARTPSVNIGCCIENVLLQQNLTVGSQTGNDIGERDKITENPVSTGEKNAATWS
Procedure: (§1) B7 family proteins (see Table 7 for details) were respectively diluted to […] with PBS, added into a 96-well plate (Corning, #9018) at 100 μl/well, and incubated at 4° C. overnight. After the liquid was discarded, the plate was washed 3 times with a PBST buffer (pH 7.4, containing 0.05% tween-20), 250 μl of blocking solution containing 2% BSA was added, and the plate was incubated for 1 hour at 37° C. The blocking solution was discarded, the plate was washed 3 times with PBST buffer (pH 7.4, containing 0.05% Tween-20), the antigen-binding protein to be tested was diluted to 2 concentrations of 10 nM and 1 nM, 100 μl of the diluted antigen-binding protein was added to each well, and the plate was incubated for 1 hour at 37° C., with the isotype antibody as the control. After the plate was washed 3 times with PBST buffer (pH 7.4, containing 0.05% Tween-20), goat anti-human HRP secondary antibody (Invitrogen, #A18805) diluted 5000 times was added, and the plate was incubated at 37° C. for 1 hour in the dark. After the plate was washed 3 times with PBST buffer (pH 7.4, containing 0.05% tween-20), TMB (Biopanda, #TMB-S-003) was added at 100 μl/well, and the plate was placed at room temperature for about 30 minutes in the dark; and a stop solution (BBI life sciences, #E661006-0200) was added to each well at 50 μl/well to stop the reaction, and the absorbance at 450 nm (OD450) was determined in a microplate reader (PerkinElemer, #Enspire).

[2] = target: T2, B7-H3/CD276 protein, human, recombinant (ECD, Fc tag) (Sino Biological, 11188-H02H) (human, UniProt Q5ZPR3 29-466)
T2 construct: extracellular domain; Bought
T2 sequence (looked up): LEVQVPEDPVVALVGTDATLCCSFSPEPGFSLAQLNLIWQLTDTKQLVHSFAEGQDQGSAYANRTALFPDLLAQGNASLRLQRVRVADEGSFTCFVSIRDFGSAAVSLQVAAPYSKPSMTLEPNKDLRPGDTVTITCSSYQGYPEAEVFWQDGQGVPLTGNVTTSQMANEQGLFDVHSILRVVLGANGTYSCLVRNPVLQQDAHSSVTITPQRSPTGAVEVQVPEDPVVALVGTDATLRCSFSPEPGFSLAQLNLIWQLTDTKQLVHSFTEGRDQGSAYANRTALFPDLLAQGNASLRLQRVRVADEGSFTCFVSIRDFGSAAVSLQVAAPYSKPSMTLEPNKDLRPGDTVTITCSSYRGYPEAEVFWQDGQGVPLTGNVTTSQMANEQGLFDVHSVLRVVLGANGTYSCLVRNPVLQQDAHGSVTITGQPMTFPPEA
Procedure: as §1

[3] = target: T3, Recombinant human VISTA/B7H5/PD-1H Fc chimera (R&D, 7126-B7-050) (human, UniProt Q9H7M9 33-194)
T3 construct: Bought
Procedure: as §1

[4] = target: T4, Recombinant human B7H4 Fc chimera (R&D, 8870-B7-050) (human, UniProt Q7Z7D3 29-258)
T4 construct: Bought
T4 sequence (looked up): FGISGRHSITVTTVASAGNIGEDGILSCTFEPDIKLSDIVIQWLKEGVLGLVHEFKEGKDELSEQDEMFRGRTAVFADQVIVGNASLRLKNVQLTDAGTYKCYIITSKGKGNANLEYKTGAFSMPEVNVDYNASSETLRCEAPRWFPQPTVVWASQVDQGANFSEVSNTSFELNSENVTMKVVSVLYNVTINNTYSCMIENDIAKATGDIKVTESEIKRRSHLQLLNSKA
Procedure: as §1

[5] = target: T5, Human PD-L1/B7-H1 protein, His tag (Acro, PD1-H5229) (human, UniProt Q9NZQ7 partial chain)
T5 construct: Bought
Procedure: as §1

[6] = target: T6, Human B7-1/CD80 protein, Fc tag (Acro, B71-H5259) (human, UniProt P33681 35-242)
T6 construct: Bought
T6 sequence (looked up): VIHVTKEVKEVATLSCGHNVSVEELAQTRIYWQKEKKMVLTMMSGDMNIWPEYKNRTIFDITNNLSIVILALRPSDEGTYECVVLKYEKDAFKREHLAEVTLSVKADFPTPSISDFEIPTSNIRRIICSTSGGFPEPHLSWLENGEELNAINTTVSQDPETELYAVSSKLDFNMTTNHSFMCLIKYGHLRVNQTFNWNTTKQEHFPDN
Procedure: as §1

[7] = target: T7, Human B7-2/CD86 protein, Fc tag (Acro, CD6-H5257) (human, UniProt P42081 26-247)
T7 construct: Bought
T7 sequence (looked up): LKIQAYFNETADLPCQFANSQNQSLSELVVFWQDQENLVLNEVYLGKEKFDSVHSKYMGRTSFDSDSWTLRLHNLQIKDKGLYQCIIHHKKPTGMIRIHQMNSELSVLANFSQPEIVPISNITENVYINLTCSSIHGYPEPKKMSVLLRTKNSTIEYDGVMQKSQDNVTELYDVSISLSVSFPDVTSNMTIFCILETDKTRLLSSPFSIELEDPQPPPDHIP
Procedure: as §1

[8] = target: T8, Human B7-DC/PD-L2/CD273 protein, recombinant (Fc tag) (Sino Biological, H10292-H02H) (human, UniProt Q9BQ51 20-219)
T8 construct: Bought
T8 sequence (looked up): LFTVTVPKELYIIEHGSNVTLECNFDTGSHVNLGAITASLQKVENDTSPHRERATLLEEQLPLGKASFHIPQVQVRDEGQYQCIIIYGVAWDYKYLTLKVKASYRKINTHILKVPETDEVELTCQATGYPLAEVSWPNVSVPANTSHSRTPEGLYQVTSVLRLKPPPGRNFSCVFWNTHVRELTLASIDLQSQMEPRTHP
Procedure: as §1

Measured: binding result

T5 sequence (Q9NZQ7 19-238 limits assumed): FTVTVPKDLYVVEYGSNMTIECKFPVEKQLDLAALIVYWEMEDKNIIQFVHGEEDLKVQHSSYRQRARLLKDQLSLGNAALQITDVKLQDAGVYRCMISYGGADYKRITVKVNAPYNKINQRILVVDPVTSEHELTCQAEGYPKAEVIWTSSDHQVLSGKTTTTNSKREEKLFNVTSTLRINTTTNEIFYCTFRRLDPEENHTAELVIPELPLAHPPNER

B1: PR004262 (antibody, human IgG1, kappa)
heavy: QVQLVESGGGVVQPGRSLRLSCAASGFTFSNYGMHWVRQVPGKGLEWVAVIWYDGSEKDYADSVKGRFTISRDNSKNTLYLQMNSLRVEDTAVYYCAKDLISGIYYVDHWGQGTLVTVSSASTKGPSVFPLAPSSKSTSGGTAALGCLVKDYFPEPVTVSWNSGALTSGVHTFPAVLQSSGLYSLSSVVTVPSSSLGTQTYICNVNHKPSNTKVDKKV[not shown - human IgG1 Fc with changes]
light: DIQMTQSPSSLSASVGDRVTITCRASQGISNYLAWYQQKPGKVPKLLIYAASTLQSGVPSRFSGSGSGTDFTLTISSLQPEDVATYYCQKYNSAPFTFGPGTKVDIKRTVAAPSVFIFPPSDEQLKSGTASVVCLLNNFYPREAKVQWKVDNALQSGNSQESVTEQDSKDSTYSLSSTLTLSKADYEKHKVYACEVTHQGLSSPVTKSFNRGEC
notes: Variant of PR003259; Human IgG1 with LALA mutation in Fc
no binding (tested: 10 nM): [1] | [2] | [3] | [4] | [5] | [6] | [7] | [8]

B2: PR004261 (antibody, human IgG1, kappa)
heavy: QVQLVESGGGVVQPGRSLRLSCAASGFTFSDYGIHWVRQAPGKGLEWVAVIWYDGSDKYYADSVRGRFTISRDNSKNTLSLQMNSLRVEDTAVYYCARDRSSGAMGYFVYWGQGTLVTVSSASTKGPSVFPLAPSSKSTSGGTAALGCLVKDYFPEPVTVSWNSGALTSGVHTFPAVLQSSGLYSLSSVVTVPSSSLGTQTYICNVNHKPSNTKVDKKV[not shown - human IgG1 Fc with changes]
light: [not shown - about 100 residues][not shown - about 100 residues]
notes: Variant of PR003249; Human IgG1 with LALA mutation in Fc
no binding (tested: 10 nM): [1] | [2] | [3] | [4] | [5] | [6] | [7] | [8]
